Where “and” joins values, the source holds several entries; their conditions need not be identical. Identical values can stand only once. The campaign covered roughly 420,000 compounds. About 64,000 (15%) were called active. The inconclusive results got no clear call from the source; some entries with a clear call stand among them for comparison. Calls come from the whole dose curve; as a rule, active = well fitted inhibition curve with a large enough effect; inconclusive = small, poorly fitted or top-dose-only effect; inactive = flat fitted curve, though single readings scatter. No potency is given beside an inconclusive call; the fits are too rough.
Assay: qHTS for Inhibitors of human tyrosyl-DNA phosphodiesterase 1 (TDP1): qHTS in cells in absence of CPT; note: nearly all actives have a fitted effect of over 55% in size
Details: DT40 Tdp1-/- hTDP1 cells, no CPT, ATP luminescence, 48 h; series mostly up to 46.2 µM
Method in brief: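 A cellular qHTS used chicken DT40 cells lacking endogenous Tdp1 but carrying stably transfected human TDP1. Compounds were applied without camptothecin, and cell growth kinetics were judged by ATP-dependent luminescence after ≥48 hr.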
Potency is the fitted concentration of half-maximal effect; tags give direction and shape of the fitted curve.

| Compound | Potency |
| --- | --- |
| CC(C)c1ccc(N2C(=O)CSC23C(=O)N2CCCc4cccc3c42)cc1 (stereo not drawn) | inactive |
| O=Cc1ccc(I)cc1 | active: 3.98 µM |
| CSC(=NNC(=O)c1ccccc1O)SC | inconclusive [inhibitor, single point] |
| Cc1cccc(NC(=O)c2cc([N+](=O)[O-])ccc2N2CCCCC2)n1 | inconclusive [inhibitor, single point] |
| CCOC(=O)/C=C(\C)Sc1cc(=O)oc2ccccc12 | active: 20.6 µM |
| COc1ccc(CN2CCC(C)(Oc3ccc(C(C)=O)cc3)C2)c2ccccc12 (stereo not drawn) | inconclusive [inhibitor, single point] |
| Cc1ccc(S(=O)(=O)N2CCC(C)CC2)cc1C(=O)NCc1ccccn1 | inconclusive [inhibitor, partial curve] |
| CCCCCCC#Cc1ccc2c(c1)COc1c3ccccc3nn1-2 | inconclusive [inhibitor, partial curve] |
| COc1ccc(-c2ccc(SC)nn2)cc1 | inconclusive [inhibitor, partial curve] |
| CN1OC[C@@H]2CN(S(=O)(=O)c3cccc4ccccc34)[C@H](c3ccc(N4CCCCC4)cc3)C[C@@H]21 | inconclusive [inhibitor, single point] |
| CCOC(=O)c1c(NC(=O)CN2CCCCC2)sc2c1CCCC2O (stereo not drawn) | inconclusive [inhibitor, single point] |
| COC(=O)C1=C(N)OC2=C(C(=O)CCC2)C1c1ccc2c(c1)OCO2 (stereo not drawn) | inactive |
| COc1ccc2sc(-c3ccc(S(C)(=O)=O)cc3)c(C#Cc3cncn3C)c2c1 | inconclusive [inhibitor, partial curve] |
| OCCCCNCc1ccc(OCc2ccccc2)cc1 | inconclusive [inhibitor, partial curve, poor fit] |
| COC(=O)c1ccc(/C=N/N2CCN(Cc3ccccc3)CC2)cc1 | inconclusive [inhibitor, full curve, poor fit] |
| Cc1cc(C(=O)NCCc2ccc(Cl)cc2)n(-c2ccccc2)n1 | inconclusive [inhibitor, single point] |
| COc1cc(CN(CCc2c(C)[nH]c3ccc(C)cc23)C(=S)NC(C)(C)C)cc(OC)c1OC | active: 16.4 µM |
| Cc1cc(S(=O)(=O)NC2CCCCC2)ccc1OCC(=O)N1CCOCC1 | inactive |
| CCOC(=O)c1c(-c2cccc(C)c2)csc1NC(=O)c1c(-c2ccccc2)noc1C | active: 23.1 µM |
| Cc1ccc2nc(-c3ccccc3)cc(C(=O)NNC(=O)c3csc(N4CCOCC4)n3)c2c1 | inconclusive [inhibitor, single point] |
| Cc1ccc(-n2[nH]c(C)c(C=Nc3ccc(Br)cn3)c2=O)cc1 | inconclusive [inhibitor, single point] |
| CSCC(=O)N1CCc2ccc(NC(=O)c3ccccc3Cl)cc2C1 | inconclusive [inhibitor, single point] |

| Compound | Potency |
| --- | --- |
| COc1ccc(CNC(=O)c2cc3cccc(OC)c3oc2=N)cc1 | inconclusive [inhibitor, single point] |
| CN1CCN(c2ccc(NC(=S)NC(=O)c3cccc4c(Br)cccc34)cc2)CC1 | active: 18.4 µM |
| O=[N+]([O-])c1cc(-c2csc(NC(CO)c3nc4ccccc4n3CCOCCO)n2)ccc1Cl (stereo not drawn) | active: 18.4 µM |
| CN(CC(=O)Nc1ccc(Cl)c(C(F)(F)F)c1)C(=O)c1ccc2c(c1)OCCO2 | inconclusive [inhibitor, single point] |
| COc1ccc(C)cc1NC(=O)Cn1nc(N2CCN(c3ccccc3OC)CC2)ccc1=O | inconclusive [inhibitor, single point] |
| O=C(Nc1ccc(S(=O)(=O)N2CCOCC2)cc1)c1ccc([N+](=O)[O-])cc1Cl | inconclusive [inhibitor, partial curve] |
| CCOC(=O)Cc1csc(NC(=S)NC(=O)c2cccc([N+](=O)[O-])c2)n1 | inconclusive [inhibitor, single point] |
| Cc1cc(N=Nc2ccc(Cl)cc2)cc(CN2CCCC2)c1O | inconclusive [inhibitor, single point] |
| CC(=O)Nc1nc2ccccc2n1Cc1ccccc1 | inconclusive [inhibitor, single point] |
| CC(C)C(=O)n1nc(-c2cccnc2)nc1NCc1ccc(F)cc1 | inactive |
| CC(C)C[C@@H](CO)N(Cc1ccccc1)S(=O)(=O)N(Cc1ccccc1)[C@H](CO)CC(C)C | active: 8.91 µM and active: 13 µM |
| Cc1ccc2c(c1)N(CC(=O)NC(C)CCc1ccccc1)C(=O)c1cccnc1O2 (stereo not drawn) | inconclusive [inhibitor, single point] |
| CCCCCCCn1ccc(=N)cc1 | active: 0.517 µM |
| COc1ccc(Cc2c(C3CCCCC3)nc3c4ccccc4ccn23)c(C)c1 | inconclusive [inhibitor, single point] |
| O=C(CN1CCN(c2ccccn2)CC1)Nc1ccc(Cl)c(C(F)(F)F)c1 | active: 18.4 µM |
| COc1ccc(C2CC(=O)CCN2S(=O)(=O)c2ccc(C)cc2)cc1 (stereo not drawn) | inconclusive [inhibitor, single point] |
| COc1ccccc1CNC(=O)C(=O)NCC(c1cccnc1)N1CCN(c2ccccc2)CC1 (stereo not drawn) | inconclusive [inhibitor, single point] |
| COc1ccc(-c2nc(SCC(=O)NC3CCCC3)c(-c3ccc(F)cc3)[nH]2)cc1OC | inconclusive [inhibitor, single point] |
| Clc1ccc(C2NCCc3sccc32)cc1 (stereo not drawn) | inconclusive [inhibitor, partial curve, poor fit] |
| CN(C)S(=O)(=O)c1cccc(C(=O)N2CCc3ccccc32)c1 | inconclusive [inhibitor, single point] |
| O=C(Cc1cccs1)N[C@@H]1c2ccccc2CC[C@H]1OCc1ccccc1 | inconclusive [inhibitor, single point] |
